We go through 1 molecule from PMC6683731 (The Journal of Cell Biology, 2019).

The target in one test is GST-Sgo1 fragment 47–353 (human, UniProt Q5FBB7 47-353). Kind of test: pull-down.
In the next test the target is GST-Sgo1 fragment 13–353 (human, UniProt Q5FBB7 13-353). The test is described as follows: pull-down.

GST-Sgo1 fragment 47–353, sequence (Q5FBB7 47-353): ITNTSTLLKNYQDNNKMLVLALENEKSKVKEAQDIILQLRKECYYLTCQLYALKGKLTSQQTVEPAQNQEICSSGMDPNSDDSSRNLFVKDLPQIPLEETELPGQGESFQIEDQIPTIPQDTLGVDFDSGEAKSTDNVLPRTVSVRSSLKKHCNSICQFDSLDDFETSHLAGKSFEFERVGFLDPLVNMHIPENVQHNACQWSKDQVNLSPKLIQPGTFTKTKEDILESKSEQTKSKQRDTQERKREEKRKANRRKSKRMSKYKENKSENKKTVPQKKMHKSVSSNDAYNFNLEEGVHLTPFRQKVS
GST-Sgo1 fragment 13–353, sequence (Q5FBB7 13-353): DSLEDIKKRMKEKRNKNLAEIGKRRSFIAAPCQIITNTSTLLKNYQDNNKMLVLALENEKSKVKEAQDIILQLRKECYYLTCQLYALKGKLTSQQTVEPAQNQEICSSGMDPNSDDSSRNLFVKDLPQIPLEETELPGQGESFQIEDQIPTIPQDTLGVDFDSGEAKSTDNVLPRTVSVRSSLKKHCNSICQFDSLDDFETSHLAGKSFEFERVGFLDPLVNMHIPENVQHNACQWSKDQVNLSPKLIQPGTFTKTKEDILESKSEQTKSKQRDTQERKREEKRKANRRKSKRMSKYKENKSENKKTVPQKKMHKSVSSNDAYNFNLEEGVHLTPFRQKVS

B1: His6-SET (full length) (natural protein)
chain: not shown
For the molecule B1, the binding result in the test with GST-Sgo1 fragment 47–353 and in the test with GST-Sgo1 fragment 13–353 was “binds” in each case.
